For one test, the system named is HSkMC. The experiment in a line: cytotoxicity call (relative viability < 0.9). Particulars: 10 µM.
The test system of the next test is HepG2. The experiment in a line: cytotoxicity call (relative viability < 0.9). The following applies: 10 µM.
The test system of another test is S. aureus RN4220. Description: growth inhibition call (relative growth <= 0.2). Particulars: 50 µM.

Some of the results follow.

As for `O=S(=O)(OC[C@H]1O[C@@](COS(=O)(=O)[O][Al]([OH])[OH])(O[C@H]2O[C@H](COS(=O)(=O)[O][Al]([OH])[OH])[C@@H](OS(=O)(=O)[O][Al]([OH])[OH])[C@H](OS(=O)(=O)[O][Al]([OH])[OH])[C@H]2OS(=O)(=O)[O][Al]([OH])[OH])[C@@H](OS(=O)(=O)[O][Al]([OH])[OH])[C@@H]1OS(=O)(=O)[O][Al]([OH])[OH])[O][Al]([OH])[OH].[OH][Al]([OH])[OH].[OH][Al]([OH])[OH].[OH][Al]([OH])[OH].[OH][Al]([OH])[OH].[OH][Al]([OH])[OH].[OH][Al]([OH])[OH].[OH][Al]([OH])[OH].[OH][Al]([OH])[OH]`, the cytotoxicity call with HSkMC and with HepG2 was “inactive” throughout. The growth inhibition call in the test with S. aureus RN4220 is “inactive”.

Consider `CC(C)(C)OC(=O)N[C@H]1CCC(=O)NC1=O`, for which the cytotoxicity call in the test with HSkMC and in the test on HepG2 was “inactive” throughout. The growth inhibition call in the test on S. aureus RN4220 is “inactive”.

For `Cc1noc(C)c1S(=O)(=O)N(C)C[C@H]1Oc2ccc(NS(=O)(=O)c3cccs3)cc2C(=O)N([C@@H](C)CO)C[C@H]1C`, the cytotoxicity call with HSkMC and in the test with HepG2 was “inactive” each time. Moreover, in the test with S. aureus RN4220, the growth inhibition call is “inactive”.

With `C[C@H](CO)N1C[C@H](C)[C@H](CN(C)Cc2ccc(C(=O)O)cc2)Oc2ccc(NC(=O)Nc3cccc4ccccc34)cc2C1=O`, the cytotoxicity call in the test on HSkMC and in the test on HepG2 was “inactive” each time. Moreover, the growth inhibition call in the test with S. aureus RN4220 is “inactive”.

As to `C[C@@H]1CN([C@@H](C)CO)C(=O)c2cc(NC(=O)Nc3ccc4c(c3)OCO4)ccc2O[C@@H](C)CCCCO[C@H]1CN(C)C(=O)Nc1cccc2ccccc12`, the cytotoxicity call in the test on HSkMC and in the test with HepG2 was “inactive” throughout. The growth inhibition call in the test with S. aureus RN4220 was “inactive”.

As for `C[C@@H]1CN([C@H](C)CO)C(=O)c2cc(NC(=O)Nc3ccc(F)cc3)ccc2O[C@@H](C)CCCCO[C@H]1CN(C)S(=O)(=O)c1ccc(F)cc1`, the cytotoxicity call with HSkMC was “inactive”. Also, in the test with HepG2, the cytotoxicity call is “active”. In the test with S. aureus RN4220, the growth inhibition call was “inactive”.

Take `Cc1ccc(S(=O)(=O)Nc2ccc3c(c2)C(=O)N([C@@H](C)CO)C[C@H](C)[C@@H](CN(C)C(=O)Nc2ccccc2)OCCCC[C@@H](C)O3)cc1`: the cytotoxicity call with HSkMC and in the test on HepG2 was “inactive” throughout. Also, the growth inhibition call with S. aureus RN4220 was “inactive”.

For the molecule `C[C@@H]1CN([C@H](C)CO)C(=O)c2cc(NC(=O)Cn3cnnn3)ccc2O[C@@H]1CN(C)Cc1ccccc1`, the cytotoxicity call in the test with HSkMC and in the test with HepG2 was “inactive” in each case. Also, the growth inhibition call in the test with S. aureus RN4220 was “inactive”.

As for `COc1ccc(S(=O)(=O)N(C)C[C@@H]2OCCCC[C@H](C)Oc3ccc(NC(=O)Nc4ccccc4)cc3C(=O)N([C@@H](C)CO)C[C@H]2C)cc1`, the cytotoxicity call in the test with HSkMC and with HepG2 was “inactive” throughout. Further, the growth inhibition call in the test on S. aureus RN4220 was “inactive”.

Take `CO[C@@H]1CN(C)C(=O)c2cc(NS(C)(=O)=O)ccc2OC[C@@H](C)N(S(C)(=O)=O)C[C@@H]1C`: the cytotoxicity call with HSkMC and in the test with HepG2 was “inactive” throughout. For the same molecule, the growth inhibition call in the test on S. aureus RN4220 is “inactive”.

For the molecule `CC(C)=CCC/C(C)=C/C(=O)O`, the cytotoxicity call in the test with HSkMC and in the test with HepG2 was “inactive” each time. In addition, the growth inhibition call in the test with S. aureus RN4220 is “inactive”.

As to `COc1ccc(S(=O)(=O)N(C)C[C@H]2OCCCC[C@@H](C)Oc3ccc(NS(=O)(=O)c4ccc(Cl)cc4)cc3C(=O)N([C@H](C)CO)C[C@H]2C)cc1`, the cytotoxicity call in the test on HSkMC is “inactive”. The cytotoxicity call with HepG2 is “active”. The growth inhibition call in the test with S. aureus RN4220 was “inactive”.

In the case of `O=C(NCC(=O)N1CC[C@H](N[C@H]2CC[C@@](O)(c3ccc(-c4ncccn4)cn3)CC2)C1)c1cccc(C(F)(F)F)c1`, the cytotoxicity call in the test with HSkMC and with HepG2 was “inactive” throughout. In addition, in the test on S. aureus RN4220, the growth inhibition call was “inactive”.

With `C[C@H](O)C#Cc1ccc2c(c1)O[C@H](CN(C)C(=O)CN(C)C)[C@H](C)CN([C@@H](C)CO)S2(=O)=O`, the cytotoxicity call in the test on HSkMC and in the test with HepG2 was “inactive” each time. For the same molecule, the growth inhibition call in the test with S. aureus RN4220 is “inactive”.

For the molecule `CO[C@H]1CN(C)C(=O)c2cc(NS(C)(=O)=O)ccc2OC[C@H](C)N(C(=O)C2CCOCC2)C[C@H]1C`, the cytotoxicity call in the test with HSkMC and with HepG2 was “inactive” each time. In the test on S. aureus RN4220, the growth inhibition call was “inactive”.

`C[C@@H]1CN([C@H](C)CO)C(=O)c2cc(NS(=O)(=O)c3ccccc3)ccc2O[C@H]1CN(C)Cc1ccncc1`: the cytotoxicity call with HSkMC and with HepG2 was “inactive” throughout. In addition, the growth inhibition call in the test on S. aureus RN4220 is “inactive”.

Consider `NCc1ccoc1`, for which the cytotoxicity call in the test with HSkMC and with HepG2 was “inactive” each time. In addition, the growth inhibition call in the test on S. aureus RN4220 is “inactive”.

As for `C[C@H](CO)N1C[C@H](C)[C@H](CN(C)C(=O)Nc2ccc(F)cc2)OCCCC[C@H](C)Oc2ccc(NS(=O)(=O)c3cccs3)cc2C1=O`, the cytotoxicity call in the test on HSkMC (human skeletal muscle cells) and with HepG2 was “inactive” in each case. Moreover, the growth inhibition call with S. aureus RN4220 was “inactive”.

Turning to `Cc1ccc(S(=O)(=O)Nc2ccc3c(c2)C(=O)N([C@H](C)CO)C[C@@H](C)[C@@H](CN(C)C(=O)NC2CCCCC2)OCCCC[C@H](C)O3)cc1`, the cytotoxicity call in the test with HSkMC and in the test with HepG2 was “inactive” each time. Further, the growth inhibition call in the test with S. aureus RN4220 was “inactive”.

Consider `COc1c(C)cnc2c1c(=O)n(CC#N)c(=O)n2C`, for which the cytotoxicity call in the test with HSkMC and in the test with HepG2 was “inactive” in each case. For the same molecule, the growth inhibition call in the test on S. aureus RN4220 is “inactive”.

As to `C[C@@H](N)[C@H]1CC[C@H](C(=O)Nc2ccncc2)CC1`, the cytotoxicity call in the test with HSkMC and in the test with HepG2 was “inactive” throughout. In addition, the growth inhibition call with S. aureus RN4220 was “inactive”.

As to `O=C(O)CCCCC(=O)O`, the cytotoxicity call with HSkMC and with HepG2 was “inactive” in each case. Also, in the test with S. aureus RN4220, the growth inhibition call is “inactive”.

With `C[C@@H]1CN([C@H](C)CO)C(=O)Cc2cc(NS(=O)(=O)c3ccc(F)cc3)ccc2O[C@H]1CN(C)Cc1ccc(-c2ccccc2)cc1`, the cytotoxicity call in the test with HSkMC and with HepG2 was “active” throughout. In addition, the growth inhibition call in the test with S. aureus RN4220 is “inactive”.

As for `C[C@H](CO)N1C[C@H](C)[C@@H](CN(C)C(=O)Cc2ccncc2)Oc2cc(C#CC3CCCCC3)ccc2S1(=O)=O`, the cytotoxicity call in the test with HSkMC and in the test with HepG2 was “inactive” each time. For the same molecule, in the test on S. aureus RN4220, the growth inhibition call is “inactive”.

Source of the values: the antibiotic and cytotoxicity screens of Wong et al. (2023).
